Legend:
[1] = target: T1, 人4-1BB (human 4-1BB, SEQ ID No.3), coated in ELISA (human, UniProt Q07011 24-186); assay: summary of the experiments (ELISA, FACS)
T1 construct: also called CD137; TNFRSF9

[2] = target: T2, 人4-1BB on CHO-K1-hu4-1BB cells (human, UniProt Q07011 24-255); assay: flow cytometry on CHO-K1-hu4-1BB cells, goat anti-human FITC
T2 construct: whole, on cells

- binding result [1]: binds
- binding result [2]: binds
B1: scFvB60103 (Fc fusion)
scFv: QVQLQESGPGLVKPSETLSITCTVSGSSLTSYGVHWVRQPPGKGLEGLGVIWPGGSTNYNSALMSRLTISKDNSKSQVSLKMSSLTAADTAMYYCARVTGTWYFDVWGQGTTVTVSSGGGGSGGGGSGGGGSDIQMTQSPSSLSASLGDRVTISCSASQGISNYLNWYQQKPDGTVKLLIYYTSTLHSGVPSRFSGSGSGTDFTLTISSLQPEDVATYYCQQYSKLPWTFGGGTKLEIKDKRV[human IgG4 Fc with S228P (EU numbers) cut from this listing]
notes: Humanised from hybridoma antibody 37G10F4; scFv-Fc (human IgG4) expressed in Expi293 cells; also called scFv-Fc(人IgG4)形式的抗原结合片段; 单链抗体的融合抗体
